Where “and” joins values, the source holds several entries; their conditions need not be identical. Equal values may be shown once. In all, about 94,000 compounds went through this assay and about 4,000 (4.3%) were called active. Inconclusive results, whose numbers are uncertain, are shown with a selection of clear calls. Calls follow the shape of the dose curve; as a rule, active = well fitted inhibition curve with a large enough effect; inconclusive = small, poorly fitted or top-dose-only effect; inactive = no such curve, though single readings can be large or run the other way. A potency beside an inconclusive call is a rough fit, not a confirmed value.
Experiment: Cytotoxic Profiling in NIH 3T3 Cell Line of Diverse Libraries Using Quantitative High-Throughput Screening; also: nearly all actives have a fitted effect of over 55% in size
Conditions: NIH 3T3 viability, CellTiter-Glo ATP luminescence, 48-72 h; activity change, negative = cytotoxicity: at 96.7 µM (top of the series) unless noted; series mostly up to 96.7 µM
In short: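 First NIH 3T3 cells are plated at 400 cells/well; next compound is pinned in; then plates incubate 48 or 72 hr at 37 °C; finally CellTiter-Glo is added and luminescence read after 10 min.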
In the case of `O=C(c1cccc(Cl)c1)N1CCCC(C(=O)N2CCC(c3nc4ccncc4[nH]3)CC2)C1` (stereo unspecified), the Potency is reported as inconclusive: 44.7 µM [inhibitor, partial curve, poor fit].
With `COc1ccc(CCC(=O)N2CCC3(CC2)CC(O)CCO3)cc1` (stereo unspecified) the “activity change, negative = cytotoxicity” value was inactive: -10.3%.
In the case of `O=S(=O)(c1ccccc1)N1CCN(c2cc(C3CC(O)C3)ncn2)CC1` (stereo unspecified), the Potency is reported as inconclusive: 44.7 µM [inhibitor, partial curve, poor fit] and inconclusive: 8.91 µM [inhibitor, full curve, poor fit].
For `CC(C)(C)c1nnc(NC(=O)NCc2ccncc2)s1`, the Potency was inconclusive: 89.1 µM [inhibitor, single point].
With `COc1cc([C@@H]2c3cc4c(cc3[C@H](O)[C@@H](CO)[C@@H]2C(=O)N2CCCCC2)OCO4)cc(OC)c1OC` the Potency was inconclusive: 70.8 µM [inhibitor, partial curve, poor fit].
For `COc1ccc(-c2cccc(C(=O)NCCCc3ccccc3)c2)nn1`, the Potency was inconclusive: 89.1 µM [inhibitor, partial curve, poor fit].
For `O=C(NC1CCCCC1)c1ccc2c(c1)N(C(=O)c1ccc(F)cc1)CC2`, the Potency was inconclusive: 70.8 µM [inhibitor, single point].
In the case of `CCCn1c(C)cnc1CC1CCCN(C(=O)C2CCCC2)C1` (stereo unspecified), the “activity change, negative = cytotoxicity” value is reported as inactive: -10.8%.
With `CCOc1ccccc1C1NC(=O)N(CC(=O)N(C)c2cccc(C)c2)C2=C1C(=O)OC2` (stereo unspecified) the “outcome” value was “inactive”.
With `CC(C)c1ccc(CC(=O)N2CCCc3ncc(C(=O)NCc4cccnc4)cc32)cc1` the “activity change, negative = cytotoxicity” value was inactive: -26.1% [at 138 µM].
For `CCc1ccc(C(=O)N2C[C@@H](CO)[C@H](c3nc(C)no3)C2)cc1`, the “activity change, negative = cytotoxicity” value was inactive: 1.97%.
For `COc1ccc(-n2nc(-c3ccccc3)n(CC(=O)N(C)CC(C)C)c2=O)cc1`, the Potency was active: 79.4 µM.
For `Cc1[nH]c2ccccc2c1CN1CCc2nc(N3CCN(C)CC3)[nH]c(=O)c2CC1`, the Potency was inconclusive: 79.4 µM [inhibitor, single point].
In the case of `Cc1ccc(Cl)cc1NC(=O)Cn1ccn2nc3c(c2c1=O)CCCCC3`, the Potency is reported as inconclusive: 50.1 µM [inhibitor, partial curve, poor fit].
In the case of `CN1CCCN(C(=O)CCn2cnnn2)c2ccccc21`, the “activity change, negative = cytotoxicity” value is reported as inactive: -7.1%.
In the case of `N#Cc1ccc(NC2CC(c3cc(N4CCC(O)C4)ncn3)C2)nc1` (stereo unspecified), the Potency is reported as active: 15.8 µM.
With `O[C@H]1CC[C@@H](Cc2cc(-c3ccc(F)cc3)on2)O[C@@H]1CNC1CCCCC1` the Potency was active: 39.8 µM.
In the case of `COCCNC(=O)c1nc(-c2c(C)cccc2C)c2ccccn12`, the Potency is reported as inconclusive: 89.1 µM [inhibitor, partial curve].
In the case of `CN(Cc1cccc(-n2cccn2)c1)Cc1nc(-c2cccs2)no1`, the “activity change, negative = cytotoxicity” value is reported as inactive: -23.6%.
With `O=C1CC2(CCN(Cc3ccc(C(F)(F)F)cc3)CC2)Oc2ccccc2N1` the Potency was inconclusive: 50.1 µM [inhibitor, partial curve, poor fit].
In the case of `Cc1nn(-c2ccccc2)c2c1C(C1CC1)N(C1CN(C(=O)c3ccccc3Cl)C1)C2=O` (stereo unspecified), the Potency is reported as active: 12.6 µM.
With `O=C(COc1ccc(F)cc1)N1CCC2(CC1)NC(=O)N(c1ccc(F)cc1)N2` the Potency was inconclusive: 39.8 µM [inhibitor, partial curve].
For `CC1CCCN1C(=O)c1cn2cc(-c3cccc(Cl)c3)n(CC3CC3)c(=O)c2n1` (stereo unspecified), the Potency was active: 25.1 µM.
With `COc1ccccc1-c1ccc2c(C(=O)NCc3ccc(F)cc3)nn(C)c2n1` the “activity change, negative = cytotoxicity” value was inactive: -28.7%.
With `COc1ccc2[nH]c3c(c2c1)CCNC31CCN(C(=O)c2cccs2)CC1` the Potency was inconclusive: 25.1 µM [inhibitor, full curve].
With `O=C(NC1CCCN(c2ccc3nnc(C4CC4)n3n2)C1)c1ccc(F)cc1` (stereo unspecified) the “activity change, negative = cytotoxicity” value was inactive: -18.5%.
With `O=C(CCCc1ccccc1)N1CCC([C@@H]2CNC[C@H]2CO)CC1` the “activity change, negative = cytotoxicity” value was inactive: -4.01%.
In the case of `O=C(CCc1nc(-c2ccccc2)no1)NC1CCCN(CCCc2ccccc2)C1` (stereo unspecified), the Potency is reported as inconclusive: 50.1 µM [inhibitor, partial curve, poor fit].
For `CCn1ncc(N2CCCC(CC(=O)Nc3ccc(Cl)cc3)C2)cc1=O` (stereo unspecified), the Potency was inconclusive: 50.1 µM [inhibitor, partial curve, poor fit].
With `O=C(c1ccc(Cl)cc1)N1CCC2(COc3ccncc3[S+](=O)([O-])N2)C1` (stereo unspecified) the Potency was inconclusive: 50.1 µM [inhibitor, partial curve, poor fit].
For `O=C1CC(c2ccccc2)N(Cc2ccc(C(F)(F)F)cc2)CCCCCN1` (stereo unspecified), the Potency was inconclusive: 39.8 µM [inhibitor, partial curve, poor fit].
For `Cc1nc(NC(=O)NC2CCN(Cc3ccccc3)CC2)nn1C`, the “activity change, negative = cytotoxicity” value was inactive: -1.82%.
With `Cc1ccc(OCc2nc(C3CN(C(=O)c4ccc5[nH]ccc5c4)C3)no2)cc1` the Potency was inconclusive: 44.7 µM [inhibitor, partial curve, poor fit].
In the case of `CC(C)CCNC(=O)c1cccc2c1CCN2S(=O)(=O)c1ccccc1F`, the Potency is reported as inconclusive: 35.5 µM [inhibitor, partial curve].
With `N#Cc1cccc(CN2CC[C@H](c3nc4ccccc4o3)C2)c1` the Potency was inconclusive: 79.4 µM [inhibitor, partial curve, poor fit].
With `O=C(NCCc1ccc(Cl)cc1)C1CCN(c2nc3ncccc3o2)CC1` the Potency was inconclusive: 70.8 µM [inhibitor, single point].
For `COc1ccccc1Nc1ccnc(N2CCN(C(=O)C3CC3)CC2)n1`, the Potency was inconclusive: 44.7 µM [inhibitor, partial curve, poor fit].
In the case of `CC(C)(C)C(=O)N1CCCC1C(=O)N1CCCC1c1nc2ccncc2[nH]1` (stereo unspecified), the “activity change, negative = cytotoxicity” value is reported as inactive: -15.8%.
With `Cc1noc(C)c1C(=O)N1Cc2ccccc2OC2(CCN(C(=O)N(C)C)CC2)C1` the “outcome” value was “inactive”.
With `Cc1ccc(-c2ncc(C(=O)Nc3ccccc3)c(-c3ccncc3)n2)cc1` the “activity change, negative = cytotoxicity” value was inactive: -4.01%.
In the case of `Cc1noc(C)c1-c1cnc2[nH]cc(CC(=O)N3CCOCC3)c2c1`, the Potency is reported as inconclusive: 31.6 µM [inhibitor, partial curve, poor fit].
With `CCc1ccc(NC(=O)c2cc(-c3ccc[nH]3)n[nH]2)cc1` the “activity change, negative = cytotoxicity” value was inactive: -16.9%.
For `O=C(Cc1c[nH]c2ncc(-c3cccc(Cl)c3)cc12)NCc1cccnc1`, the Potency was inconclusive: 56.2 µM [inhibitor, partial curve, poor fit].
For `CCn1ccnc1CN1CCC2(CCC(=O)N(CCc3ccncc3)C2)CC1`, the Potency was inconclusive: 79.4 µM [inhibitor, partial curve, poor fit].
With `COC(=O)NC1CCN(c2nccc(Nc3ccc(OC)cc3)n2)CC1` the “activity change, negative = cytotoxicity” value was inactive: -33%.
In the case of `O=C(c1c(F)cccc1Cl)N1C[C@@H](CO)[C@H](c2ccccn2)C1`, the Potency is reported as inconclusive: 50.1 µM [inhibitor, partial curve, poor fit].
In the case of `CC1=C[C@@H](CNC(=O)CC(C)(C)CC(=O)O)[C@H](C(C)C)C[C@H]1Cc1nc2ccc(C)cc2[nH]1`, the “activity change, negative = cytotoxicity” value is reported as inactive: -4.6%.
With `CCCc1noc(-c2cccn3c(CNC(=O)c4ccc5cc[nH]c5c4)nnc23)n1` the Potency was inconclusive: 79.4 µM [inhibitor, partial curve, poor fit].
With `COc1ccc(N2CCN(C(=O)CCn3ccn4nc5c(c4c3=O)CCCC5)CC2)cc1` the “activity change, negative = cytotoxicity” value was inactive: -15.7%.
In the case of `O=C1NC2(CCCN(C(=O)c3ccc4c(c3)OCO4)C2)COc2ccccc21` (stereo unspecified), the Potency is reported as inconclusive: 70.8 µM [inhibitor, single point].
In the case of `COCCn1cc2c3c(cccc31)CN(C(=O)c1ccc(C)c(C)c1)CC2`, the Potency is reported as inconclusive: 50.1 µM [inhibitor, partial curve, poor fit].
For `O=C(C1CCCN1C(=O)Nc1ccccc1)N1CCC(N2CCOCC2=O)CC1` (stereo unspecified), the “activity change, negative = cytotoxicity” value was inactive: -15.1%.
With `O=C(NCc1cccs1)C1CCN(c2nccc(Nc3ccccc3F)n2)CC1` the Potency was inconclusive: 28.2 µM [inhibitor, full curve, poor fit].
With `C=CCN1C[C@H]2COc3ccccc3[C@H]2N(C(=O)OCC(C)C)CCC1=O` the Potency was inconclusive: 70.8 µM [inhibitor, partial curve, poor fit].
In the case of `CC1=NS(=O)(=O)N(Cc2ccccc2)C=C1C(=O)OCc1noc(-c2cccc(F)c2)n1`, the Potency is reported as inconclusive: 7.08 µM [inhibitor, full curve, poor fit].
In the case of `CC(C)(CN1CCC(Cc2cccc(C(=O)O)c2)C1)N1CCOCC1` (stereo unspecified), the “activity change, negative = cytotoxicity” value is reported as inactive: 0.745%.
For `O=C(NCCOc1ccccc1)c1nc2c(o1)CCN(CC1CCCCC1)CC2`, the Potency was active: 79.4 µM.
In the case of `c1ccc(CCc2nc3nccc(-c4ccccn4)n3n2)cc1`, the “activity change, negative = cytotoxicity” value is reported as inactive: 4.26%.
For `NC(=O)COc1ccc(C(=O)N[C@@H]2CN(C(=O)Nc3cccc(C(F)(F)F)c3)CCC[C@H]2O)cc1`, the Potency was inconclusive: 89.1 µM [inhibitor, single point].
In the case of `CC(C)(C)C1CCC2(CC1)NC(=O)N(CC(=O)Nc1cccc(C#N)c1)C2=O` (stereo unspecified), the “outcome” value is reported as “inactive”.
In the case of `COc1ccc(Cl)cc1S(=O)(=O)N1CCC(c2c[nH]c3c(C)cccc23)CC1`, the Potency is reported as inconclusive: 28.2 µM [inhibitor, full curve].
With `CN(Cc1ccccn1)c1ccc(-c2nc(Cc3ccc(F)cc3)no2)cn1` the Potency was inconclusive: 89.1 µM [inhibitor, partial curve, poor fit].
For `O=C(NC1CCCCCC1)c1nnn2cc(-c3ccccc3)[nH]c(=O)c12`, the Potency was inconclusive: 4.47 µM [inhibitor, full curve, poor fit].
In the case of `CCc1nc2nccc(-c3ccc(OC)cc3)n2n1`, the Potency is reported as inconclusive: 70.8 µM [inhibitor, single point].
In the case of `Cc1ccc(-c2cc(C(=O)NCc3cccnc3)c3c(c2)ncn3C)cn1`, the Potency is reported as active: 100 µM.
With `CC1=C[C@@H](CN2CCN(c3cnccn3)CC2)[C@H](C(C)C)C[C@H]1Cc1nnc(-c2cccnc2)o1` the Potency was inconclusive: 50.1 µM [inhibitor, partial curve, poor fit].

Source: PubChem BioAssay AID1345082 (National Center for Advancing Translational Sciences (NCATS), 2018)
% is scaled to controls: 0 for no effect and ±100 for the full control effect; potency is read from the fitted curve at half-maximal effect; tags tell the direction and shape of the fitted curve.
